US20240209078A1 (Amgen, published 2024)

What was measured:
Assay in all cases: cell-based or functional assay
[1] = target: human FLT3 (Fms like tyrosine kinase 3, CD135) (human, UniProt P36888 27-993)
[2] = target: T1, human CLL1 (C-type lectin-like receptor, CLEC12A, MICL) (human, UniProt Q5QGZ9 1-265)
T1 sequence (looked up): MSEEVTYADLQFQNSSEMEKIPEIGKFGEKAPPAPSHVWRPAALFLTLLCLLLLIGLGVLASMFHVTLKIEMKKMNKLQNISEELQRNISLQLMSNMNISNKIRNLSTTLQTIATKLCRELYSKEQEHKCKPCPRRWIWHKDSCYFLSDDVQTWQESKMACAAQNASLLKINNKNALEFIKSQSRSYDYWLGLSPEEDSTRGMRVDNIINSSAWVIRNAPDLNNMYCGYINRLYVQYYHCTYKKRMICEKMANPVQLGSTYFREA

CD3ε chain = CD3ε chain (human, UniProt P07766 23-126, limits assumed)
Sequence of CD3ε chain (P07766 23-126 limits assumed): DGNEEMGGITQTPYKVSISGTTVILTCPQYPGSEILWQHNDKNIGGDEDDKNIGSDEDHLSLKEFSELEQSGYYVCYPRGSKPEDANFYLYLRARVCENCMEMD

human MSLN [3] = target: T2, human MSLN (human, UniProt Q13421 37-598)
human CDH3 [4] = target: T3, human CDH3 (human, UniProt P22223 108-829)
human MSLN [5] = target: T2, human MSLN; remark: listed apart in the source
human CDH3 [6] = target: T3, human CDH3; remark: listed apart in the source
human MSLN [7] = target: T2, human MSLN; remark: listed apart in the source
human CDH3 [8] = target: T3, human CDH3; remark: listed apart in the source

B1: CL1 9-G4 CC × 4F10.03mut × scFc × FL 4-E9 CC × 4F10.03mut (bispecific antibody)
chain: QVQLVQSGAEVKKPGASVKVSCKASGYTFTDYYMHWVRQAPGQCLEWMGWINPNSGGPNYAQKFQGRVTMTRDTSISTAHMELSRLRSDDTAVYYCAREKHAVAGIGFDYWGQGTLVTVSSGGGGSGGGGSGGGGSDIQMTQSPSSVSASVGDRVTITCQASQDISNYLNWYQQKPGKAPKLLIYAASSLESGVPSRFSGSGSGTDFTLTISSLQPEDFATYYCQQANSFPLTFGCGTKVDIKSGGGGSEVQLVESGGGLVQPGGSLKLSCAASGFTFNKYAMNWVRQAPGKGMEWVARIRSKYNNYATYYADAVKDRFTISRDDSKNTLYLQMNNLKTEDTAVYYCVRAGNFGKSYISYWAYWGQGTLVTVSSGGGGSGGGGSGGGGSQTVVTQEPSLTVSPGGTVTIT[sequence of about 80 residues omitted]FGSGTKLTVLGGGGSGGGGSGGGGS[sequence of human IgG1 Fc with R292C N297G V302C (EU numbers) omitted]GGGGSGGGGSGGGGSGGGGSGGGGSGGGGS[sequence of human IgG1 Fc with R292C N297G V302C (EU numbers) omitted]GGGGSGGGGSGGGGSQVTLKESGPTLVKPTETLTLTCTVSGFSFRNARMGVSWIRQPPGKCLEWLAHIFSNDEKSYSTSLKSRLTISKDTSKSQVVLTMTNMDPVDTATYFCARVPEYSSGWYRFDYWGQGTLVTVSSGGGGSGGGGSGGGGSDIQMTQSPSSLSASVGDRVTISCRASQSIRSYLNWYQQKPGKAPKLLIYATSSLQGGVPSRFSGSGSGTDFTLTISSLQPEDFATYYCQQSYSTPFTFGCGTKVEIKSGGGGSEVQLVESGGGLVQPGGSLKLSCAASGFTFNKYAMNWVRQAPGKGMEWVARIRSKYNNYATYYADAVKDRFTISRDDSKNTLYLQMNNLKTEDTAVYYCVRAGNFGKSYISYWAYWGQGTLVTVSSGGGGSGGGGSGGGGSQTVVTQEPSLTVSPGGTVTIT[sequence of about 80 residues omitted]FGSGTKLTVL
- cytotoxicity EC50, CHO huFLT3 cells [1]: 0.428 nM
- cytotoxicity EC50, CHO huCLL1 cells [2]: 0.261 nM
- Activity reduction of single CD3 binding domain in molecule compared to high affinity binding domain I2C with KD 1.2E-08M (CD3ε chain): ~6 fold

B2: MS 15-B12 CC × I2L × G4 × scFc × G4 × CH3 15-E11 CC × I2L (SEQ ID NO: 1078) (bispecific antibody)
chain: QVQLQESGPGLVKPSETLSLTCTVSGGSISSSSYFWGWIRQPPGKCLEWIGNIYYSGSSNYNPSLKSRVTISVDTSKNQFSLKLSSVTAADTAVYYCARLPRGDRDAFDIWGQGTMVTVSSGGGGSGGGGSGGGGSDIVMTQSPSSLSASVGDRVTITCRASQGISNYLAWYQQKPGKVPKLLIYAASTLQSGVPSRFSGSGSGTDFTLTISSLQPEDFATYYCQQSYSTPFTFGCGTKVEIKSGGGGSEVQLVESGGGLVQPGGSLKLSCAASGFTFNKYAMNWVRQAPGKGMEWVARIRSKYNNYATYYADAVKDRFTISRDDSKNTLYLQMNNLKTEDTAVYYCVRAGNFGSSYISYFAYWGQGTLVTVSSGGGGSGGGGSGGGGSQTVVTQEPSLTVSPGGTVTITCGSSTGAVTSGNYPNWIQKKPGQAPRGLIGGTKFLAPGTPARFSGSLEGGKAALTLSGVQPEDEAEYYCVLYYSNRWVFGSGTKLTVLGGGGSGGGGSGGGGS[sequence of human IgG1 Fc with R292C N297G V302C (EU numbers) omitted]GGGGSGGGGSGGGGSGGGGSGGGGSGGGGS[sequence of human IgG1 Fc with R292C N297G V302C (EU numbers) omitted]GGGGSGGGGSGGGGSQVQLVQSGAEVKKPGASVKVSCKASGYTFTNYWMNWVRQAPGQCLEWMGNIAYGVKGTNYNQKFQGRVTMTVDTSSSTAYMELSRLRSDDTAVYYCATRYFYVMDYWGQGTLVTVSSGGGGSGGGGSGGGGSDIQMTQSPSSLSASVGDRVTITCRASQDISNYLNWYQQKPGKVPKLLIYYTSRLHSGVPSRFSGSGSGTDFTLTISSLQPEDVATYYCVQYAQFPLTFGCGTKVEIKSGGGGSEVQLVESGGGLVQPGGSLKLSCAASGFTFNKYAMNWVRQAPGKGMEWVARIRSKYNNYATYYADAVKDRFTISRDDSKNTLYLQMNNLKTEDTAVYYCVRAGNFGSSYISYFAYWGQGTLVTVSSGGGGSGGGGSGGGGSQTVVTQEPSLTVSPGGTVTITCGSSTGAVTSGNYPNWIQKKPGQAPRGLIGGTKFLAPGTPARFSGSLEGGKAALTLSGVQPEDEAEYYCVLYYSNRWVFGSGTKLTVL
- EC50 GSU KO CDH3 (cytotoxicity; cells CDH3-, MSLN+) (human MSLN [3]): 0.289 nM
- fold selectivity gap, GSU KO CDH3 against GSU wt (human MSLN [3]): 138 fold
- EC50 GSU KO MSLN (cytotoxicity; cells CDH3+, MSLN-) (human CDH3 [4]): 0.177 nM
- fold selectivity gap, GSU KO MSLN against GSU wt (human CDH3 [4]): 84 fold

B3: MS 15-B12 CC×I2L×(G4S)3×scFc×(G4S)3×CH3 26-E5 CC×I2L (bispecific antibody)
chain: QVQLQESGPGLVKPSETLSLTCTVSGGSISSSSYFWGWIRQPPGKCLEWIGNIYYSGSSNYNPSLKSRVTISVDTSKNQFSLKLSSVTAADTAVYYCARLPRGDRDAFDIWGQGTMVTVSSGGGGSGGGGSGGGGSDIVMTQSPSSLSASVGDRVTITCRASQGISNYLAWYQQKPGKVPKLLIYAASTLQSGVPSRFSGSGSGTDFTLTISSLQPEDFATYYCQQSYSTPFTFGCGTKVEIKSGGGGSEVQLVESGGGLVQPGGSLKLSCAASGFTFNKYAMNWVRQAPGKGMEWVARIRSKYNNYATYYADAVKDRFTISRDDSKNTLYLQMNNLKTEDTAVYYCVRAGNFGSSYISYFAYWGQGTLVTVSSGGGGSGGGGSGGGGSQTVVTQEPSLTVSPGGTVTITCGSSTGAVTSGNYPNWIQKKPGQAPRGLIGGTKFLAPGTPARFSGSLEGGKAALTLSGVQPEDEAEYYCVLYYSNRWVFGSGTKLTVLGGGGSGGGGSGGGGS[sequence of human IgG1 Fc with R292C N297G V302C (EU numbers) omitted]GGGGSGGGGSGGGGSGGGGSGGGGSGGGGS[sequence of human IgG1 Fc with R292C N297G V302C (EU numbers) omitted]GGGGSGGGGSGGGGSQVQLVQSGAEVKKPGASVKVSCKASGYTFTSYWMHWVRQAPGQCLEWMGVIRTSTSYTIYNQKFKGRVTMTRDTSTSTVYMELSSLRSEDTAVYYCARSGPGYFDVWGQGTMVTVSSGGGGSGGGGSGGGGSDIQLTQSPSFLSASVGDRVTITCRASENIYSYLAWYQQKPGKAPKLLIYNAKTLAEGVPSRFSGSGSGTEFTLTISSLQPEDFATYYCQHNYGTPYTFGCGTKLEIKSGGGGSEVQLVESGGGLVQPGGSLKLSCAASGFTFNKYAMNWVRQAPGKGMEWVARIRSKYNNYATYYADAVKDRFTISRDDSKNTLYLQMNNLKTEDTAVYYCVRAGNFGSSYISYFAYWGQGTLVTVSSGGGGSGGGGSGGGGSQTVVTQEPSLTVSPGGTVTITCGSSTGAVTSGNYPNWIQKKPGQAPRGLIGGTKFLAPGTPARFSGSLEGGKAALTLSGVQPEDEAEYYCVLYYSNRWVFGSGTKLTVL
- EC50 (cytotoxicity) on double positive cells; column head printed 'EC50 CHO hu CDH3 (+) & MSLN (+)'; value is that of HCT 116 wt in Table 46 (human MSLN [5]): 0.00127 nM
- EC50 (cytotoxicity); column head printed 'EC50 CHO hu CDH3 (+)', table title HCT 116; value is that of HCT 116 KO CDH3 in Table 46 (human MSLN [5]): 0.0585 nM
- fold gap of column 6 (HCT 116 KO CDH3 by Table 46) against double positive cells (human MSLN [5]): 46 fold
- EC50 (cytotoxicity) on double positive cells; column head printed 'EC50 CHO hu CDH3 (+) & MSLN (+)'; value is that of HCT 116 wt in Table 46 (human CDH3 [6]): 0.00127 nM
- EC50 (cytotoxicity); column head printed 'EC50 CHO hu MSLN (+)', table title HCT 116; value is that of HCT 116 KO MSLN in Table 46 (human CDH3 [6]): 0.071 nM
- fold gap of column 2 (HCT 116 KO MSLN by Table 46) against double positive cells (human CDH3 [6]): 56 fold
- EC50 on HCT 116 KO CDH3 (cytotoxicity; cells CDH3-, MSLN+) (human MSLN [7]): 0.0585 nM
- EC50 on HCT 116 wt (cytotoxicity; cells CDH3+, MSLN+) (human MSLN [7]): 0.00127 nM
- EC50 on HCT 116 KO MSLN (cytotoxicity; cells CDH3+, MSLN-) (human CDH3 [8]): 0.071 nM
- EC50 on HCT 116 wt (cytotoxicity; cells CDH3+, MSLN+) (human CDH3 [8]): 0.00127 nM
